Measurements published in publication PMC4336329 (PLoS ONE, 2015).
In all, about 310,000 compounds went through this assay and about 2,200 (0.71%) showed an effect of 50% or more. Effects have a minus sign here. The list shows a part of the results.

Molecular target: human ether-à-go-go-related gene (hERG) potassium channel (human, UniProt Q12809)
Experiment: primary screen, population patch clamp on CHO cells stably expressing hERG

human ether-à-go-go-related gene (hERG) potassium channel, sequence (Q12809 whole entry, looked up): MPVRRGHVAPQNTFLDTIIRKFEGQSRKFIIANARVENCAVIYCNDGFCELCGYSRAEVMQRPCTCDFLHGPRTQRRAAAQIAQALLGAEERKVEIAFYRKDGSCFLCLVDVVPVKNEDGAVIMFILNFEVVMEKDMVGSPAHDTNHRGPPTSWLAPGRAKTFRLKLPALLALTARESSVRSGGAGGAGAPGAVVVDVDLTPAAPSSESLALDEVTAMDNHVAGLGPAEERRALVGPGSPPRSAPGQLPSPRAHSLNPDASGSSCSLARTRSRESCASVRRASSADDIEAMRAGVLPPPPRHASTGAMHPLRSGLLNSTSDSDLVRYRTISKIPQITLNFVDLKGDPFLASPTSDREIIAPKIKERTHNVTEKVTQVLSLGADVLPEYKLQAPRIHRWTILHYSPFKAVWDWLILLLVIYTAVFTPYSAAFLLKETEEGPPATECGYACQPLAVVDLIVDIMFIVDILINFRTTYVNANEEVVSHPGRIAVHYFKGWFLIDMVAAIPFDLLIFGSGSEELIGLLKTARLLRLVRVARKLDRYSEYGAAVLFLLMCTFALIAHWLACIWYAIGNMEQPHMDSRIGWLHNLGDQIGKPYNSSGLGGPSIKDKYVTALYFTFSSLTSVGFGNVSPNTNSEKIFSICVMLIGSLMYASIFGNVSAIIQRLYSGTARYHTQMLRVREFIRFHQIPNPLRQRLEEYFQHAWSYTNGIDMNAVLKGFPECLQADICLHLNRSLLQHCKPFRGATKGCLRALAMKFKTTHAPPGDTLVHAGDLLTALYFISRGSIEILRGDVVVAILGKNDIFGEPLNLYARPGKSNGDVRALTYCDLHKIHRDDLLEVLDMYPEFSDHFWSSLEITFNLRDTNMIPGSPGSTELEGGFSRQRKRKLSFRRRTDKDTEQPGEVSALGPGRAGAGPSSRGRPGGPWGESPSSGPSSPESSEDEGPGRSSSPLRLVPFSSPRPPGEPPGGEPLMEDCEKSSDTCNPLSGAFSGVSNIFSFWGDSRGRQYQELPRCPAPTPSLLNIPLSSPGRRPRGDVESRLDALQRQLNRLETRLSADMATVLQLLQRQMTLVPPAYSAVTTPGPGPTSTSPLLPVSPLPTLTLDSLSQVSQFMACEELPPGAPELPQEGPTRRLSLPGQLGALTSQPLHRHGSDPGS

SMILES | hERG current change (%, negative = inhibition) at 1uM
Cc1c2cnn(CC(=O)Nc3c(F)c(F)cc(F)c3F)c(=O)c2c(C)n1Cc1ccccc1F | 6.47%
O=C(Nc1ccc(F)cc1)c1nc[nH]c1C(=O)Nc1ccc([N+](=O)[O-])cc1 | 15.8%
CCOC(=O)c1c(C)n(C)c2ccc(OCC(O)CNC(CC)CO)cc12 (stereo not shown) | -6.21%
N#Cc1c(-c2ccncc2)cc(-c2ccc(F)cc2)nc1N | 12.3%
O=C(OCC(=O)N(C1CCCCC1)C1CCCCC1)c1ccncc1 | -0.498%
Cn1cc(/C=C(\NC(=O)c2ccccc2)C(=O)NCCN2CCOCC2)c2ccccc21 | 18.3%
COc1ccc(-c2nnc(SC(C)C(=O)Nc3cccc(Cl)c3)o2)cc1 (stereo not shown) | 7.51%
NC(=O)c1ccccc1N/C=C/C(=O)c1ccccc1 | 13.6%
O=S(=O)(Nc1ccc(Cl)cc1)c1cccc2cccnc12 | 11.5%
Cc1ccc(-c2cc(C(=O)NCc3ccco3)c3ccccc3n2)s1 | 7.12%
COc1cccc(/C=N/n2c(=S)n(C)c3ccccc32)c1OC | 1.69%
Cc1cc(C)nc(NC(=O)c2csnn2)c1 | 16.3%
COc1ccc(NC(=S)N2CCC(c3nc4ccccc4[nH]3)CC2)c(OC)c1 | 9.6%
Cc1c(NC(=O)COC(=O)Cn2cc(C(F)(F)F)ccc2=O)cccc1[N+](=O)[O-] | 4.72%
O=C(Cn1c(=O)n(-c2cccc(C(F)(F)F)c2)c(=O)c2sccc21)NCC1CCCO1 (stereo not shown) | 14.8%
C/C(=N\NC(=O)CNC(=O)C(c1ccccc1)c1ccccc1)c1ccc(C)cc1 | -2.57%
CCOC(=O)c1c(/N=C/C2=C(O)CCCC2=O)sc(C)c1C | 1.06%
COc1ccc(C2C(C(=O)c3ccco3)=C(O)C(=O)N2c2nnc(C)s2)cc1 (stereo not shown) | 4.17%
C=CCNc1nc(-c2ccc(O)c(C(N)=O)c2)cs1.Cl | 6.17%
CC(=O)N1N=C(c2c(-c3ccccc3)c3cc(Br)ccc3[nH]c2=O)CC1c1ccco1 (stereo not shown) | 7.81%
Cn1c(-c2ccccc2)cc(=O)c2ccccc21 | 5.87%
COC(=O)c1ccsc1-n1cc(C#N)c(=O)n(C)c1=O | 6.35%

SMILES | hERG current change (%, negative = inhibition) at 1uM
CCN(CC)c1ccc(/C=C(/C#N)C(=O)NCc2ccccc2)o1 | 11.8%
CCN=C1SC(CC(=O)Nc2ccc(N3CCOCC3)cc2)C(=O)N1CC (stereo not shown) | 16.7%
CN1CCN(c2ccccc2NC(=O)Cc2cn(C)c3ccccc23)CC1 | -4.11%
O=C(Nc1cnn(Cc2ccc(Cl)c(Cl)c2)c1)c1nc2ncccn2n1 | 8.67%
COc1ccc(-c2ccc(CCC(=O)O)n2CC(=O)Nc2ccccc2C)cc1 | 12.8%
O=C(NC1CCCCC1)C1CCCN(S(=O)(=O)c2ccc(Br)s2)C1 (stereo not shown) | 19%
Br.CC(C)(C)c1ccc(CN2C3=NCCCN3c3ccccc32)cc1 | -79.7%
O=C(/C(=N/O)n1cncn1)c1ccccc1Cl | 10.7%
CCOC(=O)/C=C1\CN(Cc2cc(OC)c(OC)c(OC)c2)S(=O)(=O)c2ccccc21 | 5.36%
O=C(Nc1ccc(Cl)cc1)Nc1ccccc1Sc1ncc([N+](=O)[O-])s1 | 10.8%
O=C(CN1CCCCC1)n1c2ccccc2c2ccccc21 | 17.5%
COc1ccc(-c2ccc(CCC(=O)O)n2-c2ccccc2OC)cc1 | 4.17%
CCC(=O)NC(=S)Nc1ccccc1C(=O)OC | 11.6%
CC1(C(=O)OCC(=O)Nc2ccccc2Cl)CC1(Cl)Cl (stereo not shown) | 4.95%
CN(C(=O)CSc1nnc(C(F)(F)F)n1N)C1CCS(=O)(=O)C1 (stereo not shown) | 11.3%
NNC(=O)COc1cccc(C(F)(F)F)c1 | 14.3%
Cc1noc(/C=C/N(C)C)c1S(=O)(=O)N1CCCC(C(=O)NCc2cccs2)C1 (stereo not shown) | 6.81%
Clc1ccc(OCCn2c(-c3ccco3)nc3ccccc32)cc1 | -19%
CCOc1ccc(NC(=O)CN2CCN(CC(=O)Nc3ccc4c(c3)OCO4)CC2)cc1 | -80.9%
O=C(N/N=C/c1ccncc1)c1ccccc1 | -1.94%
CCOC(=O)c1cn2nc(Oc3ccc(C)cc3)ccc2n1 | 9.79%
CCc1noc(C)c1C(=O)N(C)CC(=O)Nc1ccc(OC)cc1 | 10.9%

SMILES | hERG current change (%, negative = inhibition) at 1uM
O=C(CC1C(=O)NCCN1C(=O)Nc1ccc(Cl)cc1)Nc1ccc(F)cc1 (stereo not shown) | 5.18%
CN(C)S(=O)(=O)c1ccc(N)c([N+](=O)[O-])c1 | 11.8%
O=C(COc1ccc(Br)cc1Br)NC1CCCC1 | 3.41%
C=C1CCN([C@H](C(=O)OCc2ccc(C)cc2)C(C)C)S(=O)(=O)c2ccccc21 | 4.71%
COC(=O)C1=C(N)OC2=C(C(=O)CC(C)(C)C2)C1c1ccoc1 (stereo not shown) | 2.42%
CCc1ccccc1NC(=O)CNC(=O)CNC(=O)C1CCCCC1 | 10.3%
Cc1nn(Cc2c(Cl)cccc2Cl)c(Cl)c1/C=N/NC(=O)c1cccnc1 | 10.7%
O=C(NCc1cccc(Br)c1)C1CC2Cn3c(nc4ccccc43)C2N1Cc1ccccc1 (stereo not shown) | -5.17%
CC1(C)Cc2cccc(C(=O)Nc3ccc(F)cc3F)c2O1 | 14.9%
O=C(CCCCCN1C(=O)c2ccccc2C1=O)NCc1ccccn1 | 9.82%
Fc1ccc(NC(=S)N2CCN(c3ccccn3)CC2)cc1Cl | 17.6%
COc1ccc(CCNCc2ccc(OCC(=O)N3CCCCC3)c(OC)c2)cc1OC.Cl | 7.87%
Cc1cc(Nc2ccc(F)c(F)c2)nc(-c2ccccc2O)n1 | 9.93%
COCCn1c(Cc2ccccc2)nnc1SCC(=O)Nc1oc(C)c2c(C)n[nH]c(=O)c12 | 13.1%
CCOC(=O)c1[nH]c2cc(OC)c(OC)cc2c1NC(=O)C(C)N1CCN(Cc2ccccc2)CC1 (stereo not shown) | -12.5%
CCOC(=O)C1=C(C)Nc2ncnn2C1c1c[nH]c2ccccc12 (stereo not shown) | 8.18%
CCOc1ccccc1N(CC(=O)Nc1ccc(C)cc1)S(C)(=O)=O | 10.6%
Cc1ccc(CNC(=O)C2CCCN(S(=O)(=O)c3cccc4nonc34)C2)cc1 (stereo not shown) | 13.3%
Cc1nnc(SCCN2C(=O)c3ccccc3C2=O)[nH]c1=O | 5.38%
COc1ccc(S(=O)(=O)NCc2ccco2)cc1C(=O)N1CCCCC1 | 14.6%
Cc1ccc(CNC(=O)C2CCC(=O)N(CCc3ccccn3)C2)s1 (stereo not shown) | 5.76%
COC(=O)c1sc(S(=O)(=O)N2CCN(c3ccc(OC)cc3)CC2)c(C(=O)OC)c1C | -2.5%

SMILES | hERG current change (%, negative = inhibition) at 1uM
C/C=C\C=C/C(=O)Nc1cccc(C2=NOC3(C2)C[C@@H](C(N)=O)N(C(=O)/C=C/CC)C3)c1 (stereo partly shown) | 4.68%
S=C(/N=c1/sccn1Cc1ccccc1)NC1CC1 | 16.7%
CCc1cccc(N(C(=O)c2csnn2)C(C(=O)NC(C)(C)C)c2ccccn2)c1 (stereo not shown) | 10.7%
Cn1c(SCC(=O)Nc2ccc(N3CCOCC3)c(Cl)c2)nnc1C(O)c1ccccc1 (stereo not shown) | 1.78%
CCOC(=O)CSc1nnc(Cc2ccccc2)n1-c1ccc(C)cc1 | 10.8%
CCc1ccc(OCC(=O)Nc2ccc3oc(=O)ccc3c2)cc1 | 15.5%
C#Cc1ccc(C(=O)NCc2ccc(N3CCCC3=O)cc2)cc1 | 2.7%
CCCc1cc(=O)oc2cc(OCC(=O)N3C[C@H]4C[C@@H](C3)c3cccc(=O)n3C4)ccc12 | 10.5%
CCOc1ccccc1C(=O)Nc1ccc(S(=O)(=O)Nc2nccc(C)n2)cc1 | 10.8%
CCCCNc1nc2ccccc2nc1NS(=O)(=O)c1cccs1 | 9.75%
CN(CC(=O)NCCCN1CCOCC1)S(=O)(=O)c1cc(Cl)ccc1Cl | 3.11%
CC(CCc1ccccc1)NC(=O)CN(C)Cc1ccccc1F (stereo not shown) | -16.1%
O=S(=O)(c1ccc2nc(SCc3ccc(Cl)cc3)[nH]c2c1)N1CCOCC1 | 0.297%
O=C(Cn1c(=O)oc2ccccc21)Nc1ccccc1Cl | 12.1%
CC(C)(C)C(=O)NC1=NN(c2c(Cl)cc(Cl)cc2Cl)C(=O)C1 | 21.5%
COc1ccc(CCNC(=O)C2CCC(=O)N(C3CCCCCC3)C2)cc1 (stereo not shown) | 13.5%
Cc1nnc(Sc2nc3ccccc3o2)c2ccccc12 | 14%
COc1cc(-c2n[nH]c(=S)n2-c2ccc(C)cc2)cc(OC)c1OC | 11.3%
Cc1c(-n2c(-c3ccccc3)nc3ccccc3c2=O)c(=O)n(-c2ccccc2)n1C | 9.63%
O=C(Cc1ccccc1)NC1CCSc2ccccc21 (stereo not shown) | 14.2%
C=CCC1(O)C(=O)N2C(=C1C(=O)OCC)c1ccc3ccccc3c1CC2(C)C (stereo not shown) | 15.6%
C=CCNC(=S)Nc1ccc(Cl)c(S(=O)(=O)N2CCOCC2)c1 | 14.3%
